# Values joined by “and” are separate entries in the source; they are usually repeats but may differ in a detail not shown here. Equal values may be shown once. The whole screen tested about 400,000 compounds, of which about 2,200 (0.55%) were called active. About 1% were inconclusive and are not listed. Calls come from the whole dose curve; as a rule, active = well fitted inhibition curve with a large enough effect; inconclusive = small, poorly fitted or top-dose-only effect, or another doubt; inactive = no such curve, though single readings can be large or run the other way. This is a selection; strong and weak results do not stand in their true shares. Some structures have more than one record in an assay (separate samples or runs), and their calls can disagree.
# Target: DNA polymerase kappa (Homo sapiens) (UniProt Q9UBT6)
# Sequence of UniProt Q9UBT6 (Q9UBT6 whole entry, looked up): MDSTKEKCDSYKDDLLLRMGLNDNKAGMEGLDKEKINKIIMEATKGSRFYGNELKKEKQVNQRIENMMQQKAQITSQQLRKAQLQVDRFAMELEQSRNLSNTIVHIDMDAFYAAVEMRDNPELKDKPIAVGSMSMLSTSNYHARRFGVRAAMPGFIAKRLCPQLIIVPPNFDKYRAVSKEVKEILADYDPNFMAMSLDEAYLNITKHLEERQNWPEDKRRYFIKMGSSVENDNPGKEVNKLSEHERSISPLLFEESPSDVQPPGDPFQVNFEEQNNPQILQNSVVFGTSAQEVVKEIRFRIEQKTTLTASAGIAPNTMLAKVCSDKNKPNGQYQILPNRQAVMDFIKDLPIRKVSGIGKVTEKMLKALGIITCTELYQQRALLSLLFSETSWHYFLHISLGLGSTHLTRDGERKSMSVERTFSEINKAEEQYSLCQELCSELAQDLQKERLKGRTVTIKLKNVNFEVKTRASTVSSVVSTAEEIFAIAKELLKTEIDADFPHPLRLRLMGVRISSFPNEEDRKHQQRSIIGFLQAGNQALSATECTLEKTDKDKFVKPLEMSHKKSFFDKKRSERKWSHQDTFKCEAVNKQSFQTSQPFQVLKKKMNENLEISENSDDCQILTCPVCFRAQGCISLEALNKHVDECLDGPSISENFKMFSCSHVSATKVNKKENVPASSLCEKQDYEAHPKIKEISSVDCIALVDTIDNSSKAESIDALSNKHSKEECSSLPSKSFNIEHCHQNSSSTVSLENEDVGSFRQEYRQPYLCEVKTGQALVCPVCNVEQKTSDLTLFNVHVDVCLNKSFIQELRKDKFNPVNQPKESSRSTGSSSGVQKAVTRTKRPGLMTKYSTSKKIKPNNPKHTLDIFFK
# Assay: qHTS for Inhibitors of Polymerase Kappa
# Conditions: purified Pol kappa, fluorescent DNA synthesis assay, 10 min; series mostly up to 107 µM; activity, negative = inhibition: at the top concentration
# Procedure, shortened: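 10 nM Pol kappa was preincubated with compounds for 15 min at room temperature. Reaction started with 50 nM (final) substrate. Fluorescence read kinetically at 0 and 10 min.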
# % is set by controls: 0 for no effect and ±100 for the full control effect; potency is the fitted concentration of half-maximal effect.
Compound,Potency,"activity, negative = inhibition"
Nc1ccc2nc(-c3cccc(-c4nc5ccc(N)cc5[nH]4)n3)[nH]c2c1,active: 56.2 µM,
N#C/C(=C\c1ccc(O)c(O)c1)C(=O)NCc1ccccc1,inactive,
CN(C)CCCn1c2c3ccccc3ccc2c2oc(=O)c3ccccc3c21,,inactive: -22%
O=c1cc(-c2cc(O)c(O)c([C@@H]3O[C@H](CO)[C@@H](O)[C@H](O)[C@H]3O)c2)oc2cc(O[C@@H]3O[C@H](CO)[C@@H](O)[C@H](O)[C@H]3O)cc(O)c12,,inactive: 11.2% [at 60.1 µM]
C[C@@]12CCC3c4ccc(O)cc4CCC3C1CCC2O (stereo partly drawn),,inactive: -4.52% [at 60.1 µM]
COc1ccc(-c2cc(C)no2)cc1S(=O)(=O)N1CCc2ccccc21,,inactive: 24%
CCN(CC)CCCCNc1ncc2cc(-c3cc(OC)cc(OC)c3)c(NC(=O)NC(C)(C)C)nc2n1,inactive,
CCCOc1ccc(C(=O)OCCN(CC)CC)cc1N,,inactive: -8.48% [at 12 µM]
COC(=O)Nc1ccc2[nH]cc(CCNC(C)=O)c2c1,inactive,
Cc1cc(C)c(S(=O)(=O)Nc2cccc(C(F)(F)F)c2)c(C)c1,,inactive: -14.9%
O=C(N/N=C/C=C\c1ccco1)c1cccnc1,active: 79.4 µM,
COC1C(OC(=O)/C=C/C=C/C=C/C=C/C(=O)O)CCC2(CO2)C1C1(C)OC1CC=C(C)C (stereo not drawn) (tested in a mixture with another compound),,inactive: -6.33%
O=C(Nc1ccccc1F)c1coc(=O)c(Br)c1,active: 31.6 µM,
O=C(COC(=O)c1ccccc1)Nc1ncc([N+](=O)[O-])s1,active: 22.4 µM,
NS(=O)(=O)c1ccc(NC(=O)/C=C/c2ccco2)cc1,active: 50.1 µM,
CSc1ccc(/C=C2\C(=N)N3N=C(CC(=O)N4CCCCC4)SC3=NC2=O)cc1,active: 89.1 µM,
COC(=O)C1=COC(C)C2CN3CCc4c([nH]c5ccccc45)C3CC12 (stereo not drawn),,inactive: -13.4%
O[C@@H]1[C@@H](O)C=C2CCN3Cc4cc5c(cc4[C@H]1C23)OCO5 (stereo partly drawn),,inactive: -12.4%
N#Cc1c(N)sc(=S)c2c1CCCCC2,active: 28.2 µM,
CN(Cc1cnc2nc(N)nc(N)c2n1)c1ccc(C(=O)N[C@@H](CCC(=O)O)C(=O)O)cc1,inactive,
COc1cc(C2CC(=O)Oc3cc4c(cc32)OCO4)cc(OC)c1OC (stereo not drawn),,inactive: -5.88%
c1csc(Cc2nn3c(-c4ccncc4)nnc3s2)c1,active: 39.8 µM,
O=C(O)c1ccc(-c2ccc(/C=C3\NC(=O)N(Cc4ccc(Cl)cc4)C3=O)o2)cc1Cl,active: 4.47 µM,
CC(C)(C)CC(C)(C)c1ccc(O)c(Cc2ccc(Cl)cc2Cl)c1,,inactive: -7.12%
c1cncc(CNc2ncnc3ccc(-c4ccoc4)cc23)c1,,inactive: 9.47%
CC[C@H](C)[C@H](NC(=O)[C@H](Cc1ccc(O)cc1)NC(=O)[C@@H]1CCCN1C(=O)[C@H](CCCN=C(N)N)NC(=O)[C@H](CCCN=C(N)N)NC(=O)[C@@H]1CCCN1C(=O)[C@H](CCCCN)NC(=O)[C@H](CC(N)=O)NC(=O)[C@H](CCC(N)=O)NC(=O)[C@H](Cc1ccc(O)cc1)NC(=O)[C@H](CC(C)C)NC(=O)[C@@H]1CCC(=O)N1)C(=O)N[C@@H](CC(C)C)C(=O)O,,inactive: 16.1% [at 60.1 µM]
C/C=C/COC(=O)c1[nH]c2c(c1C)C(=O)CC(c1ccco1)C2 (stereo not drawn),active: 79.4 µM,

Compound,Potency,"activity, negative = inhibition"
CC(O)[C@@H]1NC(=O)[C@H](CCCN)NC(=O)[C@@H](Cc2c[nH]c3ccccc23)NC(=O)[C@H](Cc2ccc(O)cc2)NC(=O)[C@@H](NC(=O)[C@H](N)Cc2ccccc2)CSSC(C)(C)C(C(=O)N[C@H](C(N)=O)[C@@H](C)O)NC1=O (stereo partly drawn),,inactive: 11.7% [at 60.1 µM]
COc1ccc([C@@H]2CC(=O)c3c(O)cc(O[C@@H]4OC(CO[C@@H]5OC(C)[C@H](O)[C@H](O)C5O)[C@@H](O)[C@@H](O)C4O)cc3O2)cc1O (stereo partly drawn),,inactive: 1.98%
CC(=O)Oc1ccc2c(c1)Oc1cc(OC(C)=O)ccc1C21OC(=O)c2ccccc21,,inactive: 117%
CN(Cc1ccco1)S(=O)(=O)c1nnc(NC(=O)c2ccccc2Cl)s1,,inactive: 6.19%
NCCNS(=O)(=O)c1cccc2cnccc12,inactive,
CC1CCCN(C(=S)SCC(=O)c2cc(Br)cc(Br)c2O)C1 (stereo not drawn),active: 25.1 µM,
CC1=C(/C=C/C(C)=C/C=C/C(C)=C\C(=O)O)C(C)(C)CCC1,inactive,
C/C(=C\c1ccc(C(=O)O)cc1)c1ccc2c(c1)C(C)(C)CCC2(C)C,inactive,
O=CC(O)C(O)C(O)C(O)CO (stereo not drawn),,inactive: -11.3% [at 60.1 µM]
N[C@H](C(=O)N[C@@H]1C(=O)N2C(C(=O)O)=C(Cl)CS[C@@H]12)c1ccccc1,,inactive: -4.89% [at 12 µM] and inactive: -8.4% [at 12 µM]
CC1=NOC(=O)/C1=C\c1ccc(-c2ccc(Cl)c(C(=O)O)c2)o1,active: 35.5 µM,
c1coc(-c2nnc3sc(Cc4cccs4)nn23)c1,active: 20 µM,
Clc1ccc(N2CCN(Cc3c[nH]c4ncccc34)CC2)cc1,inactive,
CC[C@H](C)[C@H](NC(=O)[C@H](Cc1ccc(O)cc1)NC(=O)[C@@H]1CCCN1C(=O)[C@H](CCCCN)NC(=O)[C@@H](N)CCCCN)C(=O)N[C@@H](CC(C)C)C(=O)O,,inactive: 17.6% [at 60.1 µM]
CC(C)(C)c1ccc(C(O)CCCN2CCC(C(O)(c3ccccc3)c3ccccc3)CC2)cc1 (stereo not drawn),inactive,
Cc1cc(=O)oc2c(O)c(O)ccc12,,inactive: 12.2%
COC(=O)C(N)Cc1ccc(O)c(O)c1 (stereo not drawn),active: 89.1 µM,
CC(C)S(=O)(=O)C1=NSC2=NC(=O)/C(=C\c3ccc(-c4cccc(C(=O)O)c4)o3)C(=N)N21,active: 28.2 µM,
COc1cc(-c2noc(C)c2C#Cc2ccsc2)cc(OC)c1OC,,inactive: -4.66%
CN(C)CCCN1c2ccccc2Sc2ccc(Cl)cc21,inactive,
N[C@H](Cc1cc(I)c(Oc2cc(I)c(O)c(I)c2)c(I)c1)C(=O)O,,inactive: -16.8% [at 12 µM]
CCN(CC)C(C)CN1c2ccccc2Sc2ccccc21 (stereo not drawn),,inactive: -1.15% [at 60.1 µM]
Cc1ncc(CO)c(C=O)c1O,inactive,
CC(C)(C)[C@]1(O)CCN2CC3c4ccccc4CCc4cccc(c43)[C@@H]2C1 (stereo partly drawn),,inactive: -10.8% [at 19.4 µM]
CN(C)S(=O)(=O)c1ccc2c(c1)/C(=C/c1cc3c([nH]1)CCCC3)C(=O)N2,inactive,
C=CCCN(C1CCCC1)S(=O)(=O)c1ccccc1Br,,inactive: 7.97%

# — PubChem BioAssay AID588579 (National Center for Advancing Translational Sciences (NCATS), 2011)
